Measurements: PubChem BioAssay (NCI)
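Results reflect a 48-hour exposure of cells in 96-well plates to compound at five concentrations. GI50 = concentration required for 50% inhibition of growth.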 For part of its entries the source gives two or more results. This is not the full list of results. There may be further records. The tests behind the records often covered other concentration ranges, not given here; a value can be the end of its range. Brackets tell where a record comes from. The letters are not those of the source and start again with each entry.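 TGI denotes the concentration required for complete inhibition of growth.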

Columns and labels:
Test in all cases: growth of human tumour cells (NCI), 48 h
[1] = tested on: 786-0 renal
[2] = tested on: A498 renal
[3] = tested on: A549 NSCLC
[4] = tested on: ACHN renal
[5] = tested on: BT-549 breast
[6] = tested on: CAKI-1 renal
[7] = tested on: CCRF-CEM leukemia
[8] = tested on: DU-145 prostate
[9] = tested on: EKVX NSCLC
[10] = tested on: HCC-2998 colon
[11] = tested on: HCT-15 colon
[12] = tested on: HL-60(TB) leukemia
[13] = tested on: HOP-62 NSCLC
[14] = tested on: HOP-92 NSCLC
[15] = tested on: IGROV1 ovarian
[16] = tested on: K-562 leukemia
[17] = tested on: LOX IMVI melanoma
[18] = tested on: M14 melanoma
[19] = tested on: MALME-3M melanoma
[20] = tested on: MCF7 breast
[21] = tested on: MDA-MB-231 breast
[22] = tested on: MDA-MB-435
[23] = tested on: MOLT-4 leukemia
[24] = tested on: NCI-H23 lung
[25] = tested on: NCI-H522 lung
[26] = tested on: OVCAR-4 ovarian
[27] = tested on: OVCAR-5 ovarian
[28] = tested on: OVCAR-8 ovarian
[29] = tested on: RPMI-8226 leukemia
[30] = tested on: RXF 393 renal
[31] = tested on: SF-268 CNS
[32] = tested on: SF-295 CNS
[33] = tested on: SF-539 CNS
[34] = tested on: SK-MEL-2 melanoma
[35] = tested on: SK-MEL-28 melanoma
[36] = tested on: SK-MEL-5 melanoma
[37] = tested on: SK-OV-3 ovarian
[38] = tested on: SN12C renal
[39] = tested on: SNB-19 CNS
[40] = tested on: SNB-75 CNS
[41] = tested on: SR leukemia
[42] = tested on: SW-620 colon
[43] = tested on: T-47D breast
[44] = tested on: U251 CNS
[45] = tested on: UACC-257 melanoma
[46] = tested on: UACC-62 melanoma
[47] = tested on: XF 498 CNS

CC[C@@]1(O)C(=O)OCc2c1cc1n(c2=O)Cc2cc3c(CN(C)C)c(O)ccc3nc2-1
GI50 [1]: 12.5 nM [sample A, mean of 2 tests] and 246 nM [sample A, mean of 3 tests] and 25.8 nM [sample A, mean of 5 tests] and < 12.2 nM [sample B, mean of 2 tests] | TGI [1]: 2.29 µM [sample A, mean of 2 tests] and 2.17 µM [sample A, mean of 3 tests] and 445 nM [sample A, mean of 5 tests] and 33.1 nM [sample B, mean of 2 tests] | TGI [2]: 252 nM, 1.21 µM, 1.17 µM [sample A] and 84.8 nM [sample B] | TGI [3]: 3.67 µM, 5.42 µM, 9.25 µM [sample A] and 2.56 µM [sample B] | TGI [4]: 71.9 nM, 1.01 µM, 297 nM [sample A] and 1.23 µM [sample B] | GI50 [5]: 73.1 nM, 12.5 nM [sample A, 1 test] and 105 nM [sample A, mean of 6 tests] and 11.1 nM [sample B, 1 test] | TGI [5]: 1.04 µM, 1.09 µM [sample A, 1 test] and 35.3 µM [sample A, mean of 6 tests] and 67.1 nM [sample B, 1 test] | TGI [6]: 380 nM, 1.57 µM, 237 nM [sample A] and 975 nM [sample B] | TGI [7]: 484 nM, 540 nM, 213 nM [sample A] and < 47.1 nM [sample B] | GI50 [8]: 4.45 nM [sample A, mean of 3 tests] and 17.1 nM [sample A, mean of 4 tests] and 17.7 nM [sample A, mean of 5 tests] and < 11.8 nM [sample B, mean of 2 tests] | TGI [8]: 100 nM [mean of 3 tests] and 171 nM [mean of 4 tests] and 2.72 µM [mean of 5 tests] | TGI [9]: 8.4 µM, > 83.3 µM, 9.55 µM [sample A] and > 100 µM [sample B] | GI50 [10]: 533 nM [sample A, mean of 2 tests] and 490 nM [sample A, mean of 3 tests] and 465 nM [sample A, mean of 6 tests] and 78.3 nM [sample B, mean of 2 tests] | TGI [10]: 17 µM [sample A, mean of 2 tests] and 6.94 µM [sample A, mean of 3 tests] and 8.73 µM [sample A, mean of 6 tests] and 808 nM [sample B, mean of 2 tests] | TGI [11]: 6.26 µM, > 79.5 µM, 26.8 µM [sample A] and > 100 µM [sample B] | TGI [12]: 275 nM, 1.63 µM, 35.7 nM [sample A] and 43.3 nM [sample B] | TGI [13]: 499 nM, 1.99 µM, 20.7 nM [sample A] and 387 nM [sample B] | GI50 [14]: 59.5 nM [sample A, mean of 3 tests] and 347 nM [sample A, mean of 5 tests] and < 28.4 nM [sample B, mean of 2 tests] | TGI [14]: 844 nM, 19.4 µM, 228 nM [sample A] and 350 nM [sample B] | TGI [15]: 3.11 µM, 35.2 µM, 17.2 µM [sample A] and > 34.9 µM [sample B] | GI50 [16]: 12.1 nM [sample A, mean of 4 tests] and 137 nM [sample A, mean of 8 tests] and 25.4 nM [sample B, 1 test] | TGI [16]: 14.7 µM, > 87.1 µM, 63.7 µM [sample A] and > 100 µM [sample B] | GI50 [17]: 6.01 nM, 21.8 nM [sample A, mean of 4 tests] and 12.6 nM [sample A, mean of 7 tests] and < 10 nM [sample B, 1 test] | GI50 [18]: 7.23 nM, 16.4 nM [sample A, mean of 4 tests] and 27.6 nM [sample A, mean of 8 tests] and < 10 nM [sample B, mean of 2 tests] | TGI [18]: 553 nM, 4.42 µM [sample A, mean of 4 tests] and 3.1 µM [sample A, mean of 8 tests] and 94.1 nM [sample B, mean of 2 tests] | TGI [19]: 2.76 µM, 5.96 µM, 4.96 µM [sample A] and 1.23 µM [sample B] | TGI [20]: 25 µM, 2.46 µM [sample A] and > 100 µM [sample B] | TGI [21]: 6.61 µM, > 85.7 µM, 39.3 µM [sample A] and > 100 µM [sample B] | TGI [22]: 682 nM, 2.34 µM, 428 nM [sample A] and 471 nM [sample B] | TGI [23]: 9.6 nM, 12.1 µM, 384 nM [sample A] and < 20.1 nM [sample B] | TGI [24]: 245 nM, 1.15 µM, 250 nM [sample A] and 299 nM [sample B] | TGI [25]: 433 nM, 3.46 µM, 2.69 µM [sample A] and 1.69 µM [sample B] | TGI [26]: 2.78 µM, 48.3 µM, 13.9 µM [sample A] and > 95 µM [sample B] | TGI [27]: 2.29 µM, 6.48 µM, 1.93 µM [sample A] and > 100 µM [sample B] | GI50 [28]: 136 nM [sample A, mean of 3 tests] and 45 nM [sample A, mean of 7 tests] and 55.6 nM [sample A, mean of 8 tests] and 13.3 nM [sample B, 1 test] | TGI [28]: 2.1 µM [sample A, mean of 3 tests] and 1.26 µM [sample A, mean of 7 tests] and 24.7 µM [sample A, mean of 8 tests] and > 100 µM [sample B, 1 test] | TGI [29]: 6.84 µM, 31 µM, 26.1 µM [sample A] and 2 µM [sample B] | TGI [30]: 619 nM, 850 nM, 757 nM [sample A] and 159 nM [sample B] | TGI [31]: 1.08 µM, 72.7 µM, 13.4 µM [sample A] and 42.4 µM [sample B] | TGI [32]: 260 nM, 17.8 µM, 223 nM [sample A] and 182 nM [sample B] | TGI [33]: 20.7 nM, 105 nM, 31.4 nM [sample A] and 71.1 nM [sample B] | GI50 [34]: 365 nM [sample A, mean of 4 tests] and 739 nM [sample A, mean of 5 tests] and 1.4 µM [sample A, mean of 8 tests] and 763 nM [sample B, 1 test] | TGI [34]: 1.61 µM [sample A, mean of 4 tests] and 4.82 µM [sample A, mean of 5 tests] and 5.14 µM [sample A, mean of 8 tests] and > 100 µM [sample B, 1 test] | TGI [35]: 6.73 µM, 66 µM, 34.9 µM [sample A] and 5.55 µM [sample B] | TGI [36]: 83.1 nM, 366 nM, 150 nM [sample A] and 123 nM [sample B] | GI50 [37]: 16.5 nM [sample A, mean of 3 tests] and 21.4 nM [sample A, mean of 6 tests] and 67.1 nM [sample A, mean of 8 tests] and 18.6 nM [sample B, mean of 2 tests] | TGI [37]: 2.09 µM [sample A, mean of 3 tests] and 4.3 µM [sample A, mean of 6 tests] and 28.3 µM [sample A, mean of 8 tests] and 3.28 µM [sample B, mean of 2 tests] | TGI [38]: 291 nM, 12.8 µM, 1.26 µM [sample A] and > 100 µM [sample B] | TGI [39]: 18.3 µM, 36.8 µM, 6.88 µM [sample A] and > 100 µM [sample B] | GI50 [40]: 2.5 nM [sample A, mean of 2 tests] and 44.3 nM [sample A, mean of 7 tests] and 17.7 nM [sample B, mean of 2 tests] | TGI [40]: 134 nM, 745 nM, 218 nM [sample A] and 220 nM [sample B] | GI50 [41]: 3.74 nM, 12.5 nM [sample A, mean of 2 tests] and < 46.4 nM [sample A, mean of 6 tests] and < 10 nM [sample B, 1 test] | TGI [41]: 16.3 nM, 5.41 µM [sample A, mean of 2 tests] and 3.36 µM [sample A, mean of 6 tests] and 112 nM [sample B, 1 test] | GI50 [42]: 18.4 nM [sample A, mean of 4 tests] and 45.1 nM [sample A, mean of 6 tests] and 72.4 nM [sample A, mean of 7 tests] and < 11.7 nM [sample B, mean of 2 tests] | TGI [42]: 2.09 µM [sample A, mean of 4 tests] and 10.7 µM [sample A, mean of 6 tests] and > 62 µM [sample A, mean of 7 tests] and > 100 µM [sample B, mean of 2 tests] | TGI [43]: 4.11 µM, 20.5 µM, 5.9 µM [sample A] and > 50 µM [sample B] | GI50 [44]: < 11.7 nM [sample A, mean of 2 tests] and 13.7 nM [sample A, mean of 5 tests] and 29.6 nM [sample A, mean of 6 tests] and < 10 nM [sample B, 1 test] | TGI [44]: 311 nM [sample A, mean of 2 tests] and 264 nM [sample A, mean of 5 tests] and 5.88 µM [sample A, mean of 6 tests] and 77.4 nM [sample B, 1 test] | TGI [45]: 3 µM, 4.5 µM, 2.98 µM [sample A] and 1.45 µM [sample B] | GI50 [46]: 3.26 nM [sample A, mean of 3 tests] and 13.1 nM [sample A, mean of 6 tests] and 18.2 nM [sample A, mean of 8 tests] and < 10 nM [sample B, mean of 2 tests] | TGI [46]: 71.5 nM [sample A, mean of 3 tests] and 54.8 nM [sample A, mean of 6 tests] and 429 nM [sample A, mean of 8 tests] and 137 nM [sample B, mean of 2 tests] | TGI [47]: 7.76 µM and 274 nM
